Test results reported in PubChem BioAssay AID2060511 (Molecular Pharmacology Branch, DTP, NCI, 2025).
For part of its entries the source gives two or more results. The other results are left out here. An entry can have further records. Values given together are repeated measurements in other runs, samples, wells, individuals or studies. Signs of the kind (2×) stand for listed records that agree.

System: 422866-222-R5-J1-PDC spheroids with HUVEC/MSC, viability
Test: Anticancer human tumor 422866-222-R5-J1-PDC patient-derived pancreatic adenocarcinoma cell line growth inhibition [GQUAD]
Settings: for IC50: compound alone; for viability, T/C: stronger effect = lower value
From the text: DNA G-quadruplex Stabilizer Agents in Combinations in Complex Spheroids
A high-throughput screen of multi-cell type tumor spheroids was designed to identify active combinations of DNA G-quadruplex stabilizer agents and targeted small molecules. Complex spheroids include a stromal component modeled by human endothelial cells (HUVEC) and fibroblasts modeled by human mesenchymal stem cells (MSCs). The concentration ranges selected for each drug and investigational agent were based upon clinically achievable concentrations if the clinical Cmax of the agent was known.
Compounds. The drugs and investigational agents: pidnarulex (CX-5461; NSC782164), APTO-253 (NSC789042), BRACO-19 (NSC847499), peposertib (NSC802822), ceralasertib (NSC780249), elimusertib (NSC800525), camonsertib (NSC841442), AZD-1390 (NSC803789), olaparib (NSC753686), talazoparib (NSC767125), ART-558 (NSC835418), sotorasib (NSC818433), MRTX-1133 (NSC836407), SN-38 (NSC673596), topotecan (NSC609699), etoposide (NSC141540), doxorubicin (NSC123127), gemcitabine (NSC613327), 5-fluorouracil (NSC19893), paclitaxel (NSC125973), vemurafenib (NSC761431), panobinostat (NSC761190), R-306465 (JNJ-16241199; NSC773264), adavosertib (NSC754352), TP-3654 (NSC805149), carboplatin (NSC241240), KSQ-4279 (NSC840948), and staurosporine (NSC755774) were obtained from the National Cancer Institute (NCI) Developmental Therapeutics Program Chemical Repository (34). The FDA-approved anticancer drug set is available from the NCI Developmental Therapeutics Program. […] The stock solutions were prepared in dimethyl sulfoxide (DMSO, Sigma-Aldrich, St. Louis, MO, cat. D2650) at 800-fold the tested concentration and stored at -70 degrees C prior to their use. All drugs and investigational agents were tested over a range starting from a high concentration at or near the clinical Cmax and decreasing in half-log increments. If the clinical Cmax for an agent had not been determined, the highest concentration tested was 10 microM.
2.3 Cell Culture. All cells were maintained in an incubator at 37 degrees C and 5% CO2 with 95% humidity. The PDC lines were cultured according to standard operating procedures established by the NCI PDMR. All PDCs were thawed and cultured in Matrigel-coated flasks prepared with a working solution of 1X Ham's F-12 nutrient mix, without supplementation (Invitrogen, cat. 11765054), 100 U/mL penicillin-streptomycin (Invitrogen, cat. 15140122), and 2.5% Matrigel (Corning Inc., cat. 354248) for the first three passages. The 857933-349-R-J2-PDC line was cultured in 6C/Colon 1B media, which includes advanced DMEM/F-12 (Thermo Fisher Scientific, cat. 12634028), 10 mM HEPES (Thermo Fisher Scientific, cat. 15630080), 1X GlutaMAX supplement (Thermo Fisher Scientific, cat. 35050061), 0.1 mg/mL primocin (InvivoGen, cat. ant-pm-2), 10% defined fetal bovine serum, heat inactivated (HyClone Laboratories Inc., cat. SH30070.03HI), 50% L-WRN conditioned media (ATCC, cat. CRL-3276), 1.25 mM N-Acetyl-L-cysteine (Sigma-Aldrich, cat. A9165), 10 mM nicotinamide (Sigma-Aldrich, cat. N0636), 1X B-27 supplement (Thermo Fisher Scientific, cat. 17504044), 1X N-2 supplement (Thermo Fisher Scientific, cat. 17502048), 10 microM Y-27632 dihydrochloride (Tocris Bioscience, cat. 1254), and 50 ng/mL human EGF recombinant protein (Thermo Fisher Scientific, cat. PHG0311). The 485176-168-R4-J1-PDC line was cultured in Panc media, which includes all 6C/Colon 1B media components plus 100 ng/mL human FGF-10 (Thermo Fisher Scientific, cat. 100-26), 500 nM SB-431542 (Selleckchem, cat. S1067), and gastrin (Tocris, cat. 3006).
[…]
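Further: spheroids exposed to compounds for seven days before reading.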
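Wherever viability, T/C is given: percent viability relative to DMSO vehicle control taken as 100%.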

For `CCCS(=O)(=O)Nc1ccc(F)c(C(=O)c2c[nH]c3ncc(-c4ccc(Cl)cc4)cc23)c1F`, the IC50 was > 10 µM (2×) and 567 nM.

In the case of `O=C(NO)c1cnc(N2CCN(S(=O)(=O)c3ccc4ccccc4c3)CC2)nc1`, the viability, T/C (compound alone 10 µM) is reported as 1.95%, 72.8%, 1.71%.

In the case of `CC(=O)O[C@H]1C(=O)[C@@]2(C)[C@H]([C@H](OC(=O)c3ccccc3)[C@]3(O)C[C@H](OC(=O)[C@H](O)[C@@H](NC(=O)c4ccccc4)c4ccccc4)C(C)=C1C3(C)C)[C@]1(OC(C)=O)CO[C@@H]1C[C@@H]2O`, the viability, T/C (compound alone 10 µM) is reported as 94.9%, 1.48%, 79.4%.

For `Cc1[nH]c2ccc(F)cc2c1-c1nc2c3cccnc3c3ncccc3c2[nH]1`, the viability, T/C (compound alone 0.0316 µM) was 95.6, 95.2, 98.4, 95.9, 101, 105 (2×), 73.6, 106, 97.2, 93.5, 95.8%, the viability, T/C (compound alone 0.1 µM) was 115, 107, 99.8, 94.6, 99.3, 105, 103, 111, 114, 92.3, 88.6, 99.7% and the viability, T/C (compound alone 0.316 µM) was 116, 91.7, 106, 94.4, 99.3, 93.6, 83.9, 91.4, 104, 95.4, 89.9, 114%. For the same molecule, the viability, T/C (compound alone 1 µM) was 115, 97.4, 95, 93.4, 101 (2×), 87.1, 103, 107 (2×), 92.3, 112% and the viability, T/C (compound alone 10 µM) was 79.9, 87.7, 85.7, 79, 90, 89.6, 86.5, 92.1, 67.5, 57.6, 61.4, 70.7%.

For `Cc1cnc(CNC(=O)c2c(=O)c3ccc(N4CCCN(C)CC4)nc3n3c2sc2ccccc23)cn1`, the viability, T/C (compound alone 0.0316 µM) was 95.4, 97.9, 96.5, 95.5, 89.4, 88.6, 85.6, 100, 92.5, 111, 90.1, 91.6%.

For `CN(C)c1ccc(Nc2c3ccc(NC(=O)CCN4CCCC4)cc3nc3cc(NC(=O)CCN4CCCC4)ccc23)cc1`, the viability, T/C (compound alone 0.316 µM) was 96.2, 93.8, 94.5, 86.4, 89.9, 96.6, 109, 82.8, 91.3, 80.9, 96.7, 84.5% and the viability, T/C (compound alone 10 µM) was 92.2, 106, 94.1, 94.8, 86.6 (2×), 83.7, 74.5, 83.9, 78.7, 83.2%.

For `CC1COCCN1c1cc(-c2ccnn2C)c2ccnc(-c3ccn[nH]3)c2n1` (stereo not drawn), the IC50 was > 10 µM and 31.6 nM.

In the case of `C=CCn1c(=O)c2cnc(Nc3ccc(N4CCN(C)CC4)cc3)nc2n1-c1cccc(C(C)(C)O)n1`, the IC50 is reported as 432 nM, > 10 µM, 658 nM.
